# According to PubChem BioAssay AID504832 (National Center for Advancing Translational Sciences (NCATS), 2011):
# Hit rate of the full screen: of about 310,000 compounds, about 18,000 (5.8%) were called active. Inconclusive results, whose numbers are uncertain, are shown with a selection of clear calls. Calls come from the whole dose curve; as a rule, active = well fitted inhibition curve with a large enough effect; inconclusive = small, poorly fitted or top-dose-only effect, or another doubt; inactive = no such curve, though single readings can be large or run the other way. No potency is given beside an inconclusive call; the fits are too rough.
# Test: Primary qHTS for delayed death inhibitors of the malarial parasite plastid, 48 hour incubation
# Settings: P. falciparum luciferase growth in erythrocytes; series mostly up to 28.7 µM
# In short: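 Growth was read as firefly luciferase luminescence after a 48 h, 37 C, 5% CO2 exposure of compounds to reporter-bearing P. falciparum cultures (0.1% parasitemia, 2% hematocrit final) in Albumax-supplemented RPMI 1640.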
# Potency is the fitted concentration of half-maximal effect; tags give direction and shape of the fitted curve.
row,SMILES,Potency
1,O=C(CN1CCN(S(=O)(=O)c2ccc(Br)cc2)CC1)Nc1ccc2c(c1)OCCO2,"inconclusive [inhibitor, single point]"
2,Cc1sc2ccccc2[n+]1CC(=O)O,"inconclusive [inhibitor, partial curve, poor fit]"
3,CCCCn1c(N)c(N(CC(C)C)C(=O)CC2CCCC2)c(=O)[nH]c1=O,"inconclusive [inhibitor, partial curve, poor fit]"
4,CSc1nn(-c2ccc(C(=O)OC(C(=O)NC(N)=O)C(C)C)cc2)c(=S)s1 (stereo not given),"inconclusive [inhibitor, single point]"
5,Cc1ccc(Oc2ccc(/C=N/O)cn2)cc1,inactive
6,CC(C)CNC(=O)c1c(N)n(Cc2ccco2)c2nc3ccccc3nc12,"inconclusive [inhibitor, single point]"
7,N#C/C(=C/c1ccc(N2CCCCC2)o1)C(=O)Nc1ccc2ccccc2c1,"inconclusive [inhibitor, partial curve]"
8,Cc1ccc(CNC(=O)C(=O)Nc2nccs2)cc1,inactive
9,Cc1cc(C)cc(N=C2SC(CC(=O)Nc3ccccc3)C(=O)N2CCN2CCOCC2)c1 (stereo not given),inactive
10,Cc1cc(NC(=O)CSc2nc(C(C)C)nc3ccccc23)no1,"inconclusive [inhibitor, single point]"
11,CC(C)COCC1CC2(CC(C)C(=O)CC2=O)C(=O)O1 (stereo not given),inactive
12,Cc1ccc([N+](=O)[O-])cc1S(=O)(=O)n1ccnc1C,active: 5.22 µM
13,COc1cc(/C=N/NC(=O)Cc2c[nH]c3ccccc23)cc(OC)c1OC,inactive
14,COc1ccc(OCc2cccc(C(=O)O)c2)cc1,inactive
15,O=C(NCCNC(=O)c1ccc(Br)o1)c1ccc(Br)o1,"inconclusive [inhibitor, full curve, poor fit]"
16,CCN(CC)C(=O)CSc1nc2cc3c(cc2c(=O)n1Cc1ccco1)OCO3,inactive
17,Cc1ccc(NC(=O)c2ccc3ccccc3n2)nc1,inactive
18,Cc1cc2c(=O)n(C)c(SCC(=O)Nc3cccc(O)c3)nc2s1,"inconclusive [inhibitor, single point]"
19,COc1cc(NC(=O)Nc2ccccc2OC)c(OC)cc1NC(=O)CN1CCCCC1,active: 6.57 µM
20,CC(C)(C)c1csc(CS(=O)(=O)c2ccccn2)n1,inactive
21,CCCCNC(=O)/C(C#N)=C/c1cccnc1,inactive
22,OC(CN1CCC(Cc2ccccc2)CC1)c1ccccc1 (stereo not given),"inconclusive [inhibitor, partial curve, poor fit]"
23,O=S(=O)(Oc1ccc(C(=S)N2CCOCC2)cc1)c1ccc(Cl)cc1,inactive

row,SMILES,Potency
1,CCN(CC)S(=O)(=O)c1ccc(Cl)c(C(=O)Nc2cc(C)nn2-c2ccccc2C(F)(F)F)c1,"inconclusive [inhibitor, single point]"
2,Cc1ccc(-n2nc3c(c2NC(=O)c2ccc(Br)o2)CSC3)c(C)c1,"inconclusive [inhibitor, partial curve]"
3,Cc1ccc(S(=O)(=O)N2CCN(C(=O)c3cccc(-n4cccc4)c3)CC2)cc1,"inconclusive [inhibitor, single point]"
4,CCc1ccc(NC(=O)Nc2ccncc2)cc1,active: 13.1 µM
5,O=C(CCn1cnc2ccccc21)N/N=C/c1ccccc1O,"inconclusive [inhibitor, single point]"
6,CCOc1cc(/C=C2\SC(=NC)N(C)C2=O)c(Br)cc1OC(C)=O,"inconclusive [inhibitor, full curve, poor fit]"
7,COc1ccc(C2c3[nH]c4ccccc4c3CCN2Cc2ccoc2)c(F)c1 (stereo not given),"inconclusive [inhibitor, partial curve, poor fit]"
8,CCn1c(Cc2ccccc2)nnc1SCC(=O)Nc1ccc(N2CCOCC2)c(Cl)c1,"inconclusive [inhibitor, single point]"
9,CCn1c(CNC(=O)COc2ccc(C(C)C)cc2)nnc1SCC(=O)Nc1cc(F)ccc1C,"inconclusive [inhibitor, partial curve]"
10,CCN(CC)S(=O)(=O)c1ccc(C(=O)NNC(=O)c2cccs2)cc1,inactive
11,O=C1CCCC(O)=C1N=Nc1c(Cl)cc(C(F)(F)F)cc1Cl,"inconclusive [inhibitor, full curve, poor fit]"
12,Cc1cc(C)c2nc(N3CCC(C(=O)NCc4cccnc4)CC3)sc2c1,inactive
13,O=C(NC1CCCCCC1)C1CCN(C(=O)c2cccc(Cl)c2)CC1,inactive
14,CSCCC(NS(=O)(=O)c1cccc(C(F)(F)F)c1)C(=O)N(C)CCOc1ccc(Cl)cc1 (stereo not given),"inconclusive [inhibitor, single point]"
15,CCn1c(SC(C)C)nnc1-c1cc(-c2ccccc2)sc1N,"inconclusive [inhibitor, partial curve]"
16,COc1ccc(Nc2cc(Nc3ccc(OC)cc3)ncn2)cc1,inactive
17,Cc1[nH]c(=O)nc2c1CCC2,"inconclusive [inhibitor, full curve, poor fit]"
18,CCCCN(C(=O)CSc1n[nH]c(-c2ccc(C)cc2)n1)c1c(N)n(CCCC)c(=O)[nH]c1=O,"inconclusive [inhibitor, single point]"
19,O=C1CCCC2=C1C(c1ccc(Cl)cc1)n1c(s/c(=C\c3ccc4ccncc4c3)c1=O)=N2 (stereo not given),"inconclusive [inhibitor, partial curve]"
20,CCCCC(c1nnnn1CC1CCCO1)N1CCN(Cc2ccccc2)CC1 (stereo not given),"inconclusive [inhibitor, single point]"
21,COC(=O)[C@]1(Cc2ccccc2)N[C@H](c2ccc(-c3ccccc3)cc2)[C@@H]2C(=O)N(C)C(=O)[C@@H]21,"inconclusive [inhibitor, single point]"
22,CSc1ccccc1NC(=O)CN(C)C(C)C(=O)NC(=O)NC1CCCCC1 (stereo not given),"inconclusive [inhibitor, partial curve, poor fit]"
